Experimental data as given in PubChem BioAssay AID2451 (National Center for Advancing Translational Sciences (NCATS), 2010).
Hit rate of the full screen: of about 290,000 compounds, about 2,100 (0.72%) were called active. Inconclusive results, whose numbers are uncertain, are shown with a selection of clear calls. Calls come from the whole dose curve; as a rule, active = well fitted inhibition curve with a large enough effect; inconclusive = small, poorly fitted or top-dose-only effect, or effect the other way; inactive = flat fitted curve, though single readings scatter. A potency beside an inconclusive call is a rough fit, not a confirmed value.

target: Fructose-bisphosphate aldolase (Giardia intestinalis (strain ATCC 50803 / WB clone C6)) (UniProt A8B2U2); assay: qHTS Assay for Inhibitors of Fructose-1,6-bisphosphate Aldolase from Giardia Lamblia; details: purified Giardia FBPA; series mostly up to 59.6 µM; note: nearly all actives have a fitted effect of over 55% in size
Text: Assay Provider: Osnat Herzberg, University of Maryland
The objective of this project is to obtain compounds that inhibit Giardia lamblia growth. G. lamblia is a human pathogen which afflicts impoverished nations; it is the most common cause of outbreaks of diarrhea in the United States. During the course of our study of potential drug targets in Giardia, we have identified the Class II (Zn2+ functions in electrophilic catalysis) fructose-1,6-bisphosphate aldolase (FBPA) as an excellent candidate for drug targeting. FBPA is a key glycolytic pathway enzyme, essential for G. lamblia survival. The human FBPA belongs to the Class I aldolases, which have a different substrate binding site structure and a radically different catalytic mechanism (employing a lysine-Schiff base intermediate). Therefore, affinity-based or mechanism-based inhibitors of the Giardia FBPA are expected not to interfere with the catalytic function of the human FBPA.
A glyceraldehyde-3-phosphate dehydrogenase/triose phosphate isomerase/NAD/arsenate coupled assay was adapted to the 1536-well HTP format for use in the primary screen. This was done by coupling it to a diaphorase/resazurin/resorufin reaction that can be monitored by fluorescence (excitation, 544 nm; emission, 590 nm). Compounds identified in this screen will be further evaluated by coupling the glycerol-3-phosphate/triose phosphate isomerase/NADH assay to a phenazine methosulfate/tetranitroblue tetrazolium color reaction. False positives due to the dehydrogenases and diaphorase inhibition will be eliminated, and selectivity assay will triage inhibitors of mammalian triose phosphate isomerase and the Class I FBPA. G. lamblia FBPA inhibitors identified by the in vitro analyses will be examined for growth inhibition of Giardia trophozoites, and for cytotoxicity in human cells.
Step,Parameter,Value,Description
1,Enzyme reagent,2 uL,40 nM FBPA
2,Compound,23 nL,3.68 nM-57.5 uM final concentration
3,Time,10 min,RT Incubation
4,Substrate/detection Reagent,2 uL,Substrate + enzyme coupling system + AmpLite Red kit
5,Time,20 min,RT Incubation
6,Detector,525 nm/598 nm (Fluorescence),ViewLux Fluorescence Read (Read 1)
1,Medium-binding black solid-bottom Kalypsys plates. FRD or Kalypsys dispenser, 2 uL of FBPA enzyme. Bottle kept at 4C.
2,Compound Library (10 mM ,1:5 dilution). Pin-transferred for a [final] range of 3.68 nM-57.5 uM.
4,FRD or Kalypsys dispenser, 2 uL of reaction mixture. Bottle kept at 4C and covered in foil to protect from light.
6,ViewLux Protocol 1194; Excitation filter wheel A (525/20 Pol; BODIPY TMR FP), Emission filter wheel B (598/25 S; BODIPY TMR FP S).
Keywords: Fructose-bisphosphate aldolase, FBPA , Giardia lamblia , Giardia, HTS, Inhibitors
Potency is the fitted concentration of half-maximal effect; tags give direction and shape of the fitted curve.

Sequence of UniProt A8B2U2 (A8B2U2 whole entry, looked up): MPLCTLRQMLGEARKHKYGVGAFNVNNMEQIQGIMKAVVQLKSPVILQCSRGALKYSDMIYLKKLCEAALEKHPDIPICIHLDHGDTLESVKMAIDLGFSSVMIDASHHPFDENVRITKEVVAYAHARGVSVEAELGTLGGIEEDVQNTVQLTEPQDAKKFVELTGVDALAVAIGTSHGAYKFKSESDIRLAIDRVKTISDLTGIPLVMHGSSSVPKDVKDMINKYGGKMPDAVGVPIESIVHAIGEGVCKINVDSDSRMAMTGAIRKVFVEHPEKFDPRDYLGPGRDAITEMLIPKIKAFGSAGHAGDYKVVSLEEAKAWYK

Row | SMILES | Potency
1 | Cc1ccc(CSC(Nc2ccc(F)cc2)=C(C#N)C#N)cc1 | inactive
2 | N#CC(Cc1ccc(O)c(O)c1)C(=O)N1CCc2ccccc21 (centres undefined) | inconclusive: 15.8 µM [inhibitor, single point]
3 | O=C1C(=O)c2ccccc2C(O)=C1CCCCl | active: 3.54 µM
4 | COC(=O)NC1C=CCCC1C(C)=O (centres undefined) | inactive
5 | O=C(Nc1ccccc1N1CCCCC1)c1ccc(-c2cccc(Cl)c2)o1 | inactive
6 | O=C(N/N=C/c1ccc[nH]1)c1ccc(COc2cccc3cccnc23)cc1 | inactive
7 | CCc1cccc(OCCn2ccnc2)c1 | inconclusive: 2.81 µM [inhibitor, full curve]
8 | CC(C)c1nnc(NC(=O)CCC(=O)NCC2CCCO2)s1 (centres undefined) | inactive
9 | CC1CN(Cc2ccc(Cl)cc2Cl)CC(C)O1 (centres undefined) | inconclusive: 19.9 µM [inhibitor, partial curve]
10 | NC(=O)c1ccsc1N | inconclusive: 15.8 µM [inhibitor, partial curve]
11 | CCn1cc(CN2CCCC(C(=O)Nc3cccc(-n4cccn4)c3)C2)c(C)n1 (centres undefined) | inactive
12 | CCn1c(C(C)NS(=O)(=O)c2ccc(Cl)cc2)n[nH]c1=S (centres undefined) | active: 11.2 µM
13 | CCCCCNCC(=O)Nc1cc(C(F)(F)F)ccc1OCCOC | inconclusive: 22.3 µM [inhibitor, partial curve]
14 | CC(/C=C/c1ccco1)=N\NC(=O)c1cccnc1 | inconclusive: 11.2 µM [inhibitor, partial curve]
15 | COc1ccc(CNC(=O)[C@@H](C)NC(=O)C2CCN(C(=O)[C@@H](N)CCSC)CC2)cc1 | inconclusive: 10 µM [inhibitor, partial curve]
16 | COc1ccc2c(c1)c1ccc3c(c1n2C)C(=O)C=CC3=O | inconclusive: 3.97 µM [inhibitor, full curve]
17 | O=c1c(OC2OC(CO)C(O)C(O)C2O)c(-c2ccc(O)c(O)c2)oc2cc(O)cc(O)c12 (centres undefined) | inconclusive: 12.6 µM [inhibitor, partial curve]
18 | CCOc1ccc(NCC(=O)Nc2ccc(C)cc2C)cc1 | inconclusive: 11.2 µM [inhibitor, partial curve]
19 | Cn1nnnc1SCC(=O)Nc1cccc([N+](=O)[O-])c1 | inactive
20 | COC(=O)Nc1ccc2c(c1)N(C(=O)CCN1CCN3CCCC3C1)c1ccccc1S2 (centres undefined) | inactive
21 | O/N=C1/CCc2nonc2/C1=N/O | active: 15.8 µM
22 | Clc1cccc(Cc2nn[nH]n2)c1 | inconclusive: 17.7 µM [inhibitor, single point]
23 | Cc1cc(C(=O)CSc2n[nH]c(N)n2)c(C)n1C1CC1 | inactive
24 | O=S(=O)(Cc1cc(Cl)nc(-c2ccncc2)n1)c1ccccc1 | inactive
